{
  "source": "PubChem BioAssay AID504333",
  "about": "(National Center for Advancing Translational Sciences (NCATS), 2011)",
  "note": "Several values for one entry are separate records, joined by “and”; a condition that tells them apart may be missing. Equal values may be shown once. The campaign covered roughly 360,000 compounds. About 16,000 (4.4%) were called active. The shares of active, inactive and inconclusive entries below differ from those in the screen. Calls follow the shape of the dose curve; as a rule, active = well fitted inhibition curve with a large enough effect; inconclusive = small, poorly fitted or top-dose-only effect; inactive = no such curve, though single readings can be large or run the other way. Potencies of inconclusive entries are doubtful fits and often do not repeat. % is scaled to controls: 0 for no effect and ±100 for the full control effect; potency is read from the fitted curve at half-maximal effect; tags tell the direction and shape of the fitted curve.",
  "data": [
    {"target": "Bromodomain adjacent to zinc finger domain protein 2B (Homo sapiens) (UniProt Q9UIF8)", "sequence (Q9UIF8 whole entry, looked up, the tested form may be a part)": "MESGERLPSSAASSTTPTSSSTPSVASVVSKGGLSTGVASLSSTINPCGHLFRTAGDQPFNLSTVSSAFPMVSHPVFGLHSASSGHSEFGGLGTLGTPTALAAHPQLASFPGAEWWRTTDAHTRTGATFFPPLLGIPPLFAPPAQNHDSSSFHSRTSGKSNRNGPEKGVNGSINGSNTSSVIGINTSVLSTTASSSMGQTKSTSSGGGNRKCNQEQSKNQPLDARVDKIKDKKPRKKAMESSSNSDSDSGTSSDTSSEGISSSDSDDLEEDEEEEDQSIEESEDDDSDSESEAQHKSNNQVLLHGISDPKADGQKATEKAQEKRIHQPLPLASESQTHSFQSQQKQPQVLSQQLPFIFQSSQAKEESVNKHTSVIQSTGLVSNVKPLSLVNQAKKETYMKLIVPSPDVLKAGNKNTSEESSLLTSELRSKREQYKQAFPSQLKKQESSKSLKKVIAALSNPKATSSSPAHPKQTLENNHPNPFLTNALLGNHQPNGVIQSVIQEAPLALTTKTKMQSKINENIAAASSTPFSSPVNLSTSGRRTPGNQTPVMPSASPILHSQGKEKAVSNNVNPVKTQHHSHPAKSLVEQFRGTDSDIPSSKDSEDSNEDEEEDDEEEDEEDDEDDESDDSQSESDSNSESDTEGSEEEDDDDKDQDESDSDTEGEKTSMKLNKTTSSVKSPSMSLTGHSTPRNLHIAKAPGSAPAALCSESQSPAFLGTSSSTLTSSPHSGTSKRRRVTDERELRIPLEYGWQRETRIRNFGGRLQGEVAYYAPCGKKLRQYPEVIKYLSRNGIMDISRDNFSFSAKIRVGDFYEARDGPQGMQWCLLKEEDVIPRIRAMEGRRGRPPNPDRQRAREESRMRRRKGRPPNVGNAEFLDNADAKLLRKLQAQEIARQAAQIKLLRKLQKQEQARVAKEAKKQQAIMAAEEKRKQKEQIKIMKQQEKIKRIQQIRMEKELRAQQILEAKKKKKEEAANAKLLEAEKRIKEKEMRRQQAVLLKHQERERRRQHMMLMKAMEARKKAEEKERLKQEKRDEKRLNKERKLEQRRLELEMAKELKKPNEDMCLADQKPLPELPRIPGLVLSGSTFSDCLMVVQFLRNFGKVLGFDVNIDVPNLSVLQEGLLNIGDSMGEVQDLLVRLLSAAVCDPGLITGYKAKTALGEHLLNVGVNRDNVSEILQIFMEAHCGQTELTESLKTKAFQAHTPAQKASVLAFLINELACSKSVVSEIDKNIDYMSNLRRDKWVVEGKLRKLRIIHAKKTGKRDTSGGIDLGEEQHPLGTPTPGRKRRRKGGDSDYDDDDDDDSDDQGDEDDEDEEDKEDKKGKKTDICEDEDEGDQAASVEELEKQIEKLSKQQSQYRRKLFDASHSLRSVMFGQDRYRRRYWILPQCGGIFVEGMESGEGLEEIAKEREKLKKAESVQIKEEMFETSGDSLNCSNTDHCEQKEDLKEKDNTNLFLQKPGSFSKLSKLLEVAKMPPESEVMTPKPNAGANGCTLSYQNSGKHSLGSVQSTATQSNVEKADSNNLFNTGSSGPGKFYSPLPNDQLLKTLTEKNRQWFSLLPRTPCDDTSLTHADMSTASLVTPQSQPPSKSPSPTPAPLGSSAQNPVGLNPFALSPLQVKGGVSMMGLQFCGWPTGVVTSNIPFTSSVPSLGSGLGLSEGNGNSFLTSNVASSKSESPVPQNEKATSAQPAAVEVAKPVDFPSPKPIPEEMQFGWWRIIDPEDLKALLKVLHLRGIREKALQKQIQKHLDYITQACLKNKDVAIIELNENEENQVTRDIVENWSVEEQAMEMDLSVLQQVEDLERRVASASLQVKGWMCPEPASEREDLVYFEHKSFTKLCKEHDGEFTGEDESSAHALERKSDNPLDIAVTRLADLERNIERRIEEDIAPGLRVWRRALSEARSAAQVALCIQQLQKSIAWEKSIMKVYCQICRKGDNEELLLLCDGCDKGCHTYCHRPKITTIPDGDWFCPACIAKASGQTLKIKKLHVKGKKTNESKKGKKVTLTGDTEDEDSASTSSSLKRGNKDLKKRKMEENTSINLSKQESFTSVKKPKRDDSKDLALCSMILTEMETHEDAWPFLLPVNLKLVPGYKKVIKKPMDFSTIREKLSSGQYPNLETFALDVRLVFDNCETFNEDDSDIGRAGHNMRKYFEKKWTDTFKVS", "assay": "qHTS Assay for Inhibitors of BAZ2B; also: nearly all actives have a fitted effect of over 60% in size", "details": "AlphaScreen BAZ2B-H3K14Ac peptide displacement; activity change, negative = inhibition: at 114 µM (top of the series)", "how_it_was_run": "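Complex of BAZ2B and biotin-H3K14Ac (50 nM apiece) forms over 30 min at RT, then faces library compounds up to 110 uM for another 30 min; AlphaScreen beads added, 20 min dark incubation, luminescence read.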", "values": [
      {"smiles": "Cc1ccc(-c2nn(-c3cccc(F)c3)cc2CN(Cc2nccn2C)C(C)C)o1", "Potency": "inconclusive: 50.1 µM [inhibitor, partial curve]"},
      {"smiles": "Cc1ccc(S(=O)(=O)N2CCN(C(C)CC(=O)O)CC2)cc1", "note": "(stereo not drawn)", "Potency": "active: 50.1 µM"},
      {"smiles": "Fc1cccc(Cl)c1Cn1c(-c2cccs2)nc2ccccc21", "activity change, negative = inhibition": "inactive: 6.15%"},
      {"smiles": "O=C(NCc1ccc(F)cc1)c1ccc2nc(N3CCCCC3)sc2c1", "activity change, negative = inhibition": "inactive: 9.7%"},
      {"smiles": "CC(=O)NC(C)c1cc(Cl)c2cccnc2c1O", "note": "(stereo not drawn)", "Potency": "active: 25.1 µM and active: 35.5 µM"},
      {"smiles": "COc1ccc(-n2c(C)cc(C(=O)COC(=O)Cn3cnc4ccccc43)c2C)cc1", "Potency": "inconclusive: 89.1 µM [inhibitor, single point]"},
      {"smiles": "CCOc1ccc(CCNC(=O)c2ccc(Cl)c(S(=O)(=O)N3CCOCC3)c2)cc1OCC", "Potency": "active: 56.2 µM"},
      {"smiles": "CC(=O)c1ccc(N2CCN(C(=O)CCCCn3c(=O)[nH]c4ccccc4c3=O)CC2)cc1", "activity change, negative = inhibition": "inactive: 0.0812%"},
      {"smiles": "CN(Cc1ccccc1)CC(O)COc1ccc(CNCc2ccc(Cl)s2)cc1", "note": "(stereo not drawn)", "Potency": "inconclusive: 14.1 µM [inhibitor, full curve, poor fit]"},
      {"smiles": "O=C(CNCCc1ccccc1)N1CCc2ccccc2C1", "Potency": "active: 50.1 µM"},
      {"smiles": "CC1=NN(C(N)=S)C(=O)C1N=Nc1cccc(Cl)c1C", "note": "(stereo not drawn)", "Potency": "active: 44.7 µM"},
      {"smiles": "C=CCn1c(SCC(=O)c2ccc(O)c(O)c2)nnc1-c1cccnc1", "Potency": "active: 35.5 µM"},
      {"smiles": "CC(=O)C(Sc1nn(C)c(=S)s1)C(=O)Nc1ccccc1", "note": "(stereo not drawn)", "Potency": "inconclusive: 89.1 µM [inhibitor, single point]"},
      {"smiles": "COc1cc(NC(=O)COC(=O)CSc2ccc3ccccc3c2)c(C)cc1[N+](=O)[O-]", "Potency": "inconclusive: 79.4 µM [inhibitor, single point]"},
      {"smiles": "N[C@@H](Cc1c[nH]c2ccccc12)C(=O)O", "Potency": "active: 50.1 µM"},
      {"smiles": "O=C(Cc1cccs1)N=Nc1c(O)[nH]c2ccc(Br)cc12", "Potency": "inconclusive: 39.8 µM [inhibitor, partial curve]"},
      {"smiles": "Cc1oc(/N=C/c2cccc3ccccc23)c(C#N)c1C", "activity change, negative = inhibition": "inactive: -5.1%"},
      {"smiles": "CCOc1ccc(CC(=O)Nc2sc(Cc3ccccc3)c(C)c2C(N)=O)cc1OCC", "Potency": "inconclusive: 89.1 µM [inhibitor, single point]"},
      {"smiles": "COc1cc(-c2cc(C(=O)NN3CCN(C)CC3)c3ccccc3n2)cc(OC)c1OC", "Potency": "inconclusive: 79.4 µM [inhibitor, partial curve]"},
      {"smiles": "Cc1ccc2oc(=O)c(/C=C(\\O)c3ccccc3)nc2c1", "activity change, negative = inhibition": "inactive: -32.1%"},
      {"smiles": "Nc1nc2ccccc2n1C(=O)c1ccccc1", "Potency": "active: 79.4 µM"},
      {"smiles": "CC(Nc1ccc2c(c1)OCCO2)C(=O)Nc1ccc2c(c1)OCO2", "note": "(stereo not drawn)", "Potency": "inconclusive: 35.5 µM [inhibitor, partial curve]"},
      {"smiles": "CC(C)(C)c1cc(=O)n(-c2ccccc2)[nH]1", "Potency": "inconclusive: 89.1 µM [inhibitor, single point]"},
      {"smiles": "O=C(O)c1cccc(NC(=O)c2ccc3c(c2)C(=O)N(c2ccccc2)C3=O)c1", "activity change, negative = inhibition": "inactive: -16.6%"},
      {"smiles": "Cc1cc(C)cc(-n2ccn(CC(=O)Nc3cc(C)ccc3C)c(=O)c2=O)c1", "activity change, negative = inhibition": "inactive: -1.19%"},
      {"smiles": "COc1cc(/C=N/N2CCN(c3ccccc3)CC2)cc(OC)c1OC(C)=O", "Potency": "active: 44.7 µM"},
      {"smiles": "Fc1ccc(N2CCN(C3=Nc4cccc5cccc3c45)CC2)cc1", "Potency": "active: 35.5 µM"},
      {"smiles": "Cc1cnccc1CN(C)Cc1cn(C)nc1-c1ccc(Oc2ccccc2)cc1", "Potency": "inconclusive: 56.2 µM [inhibitor, partial curve]"},
      {"smiles": "CN1CCc2c(c3c(n2C)CCN(C)[C@H]3c2ccccc2F)[C@@H]1c1ccccc1F", "Potency": "inconclusive: 79.4 µM [inhibitor, single point]"},
      {"smiles": "COc1ccc(CNC(=O)c2ccc(C(C)(C)C)cc2)cc1", "activity change, negative = inhibition": "inactive: 0.474%"},
      {"smiles": "C[n+]1c(/C=C/c2ccc3c(c2)OCO3)ccc2ccccc21", "Potency": "inconclusive: 17.8 µM [inhibitor, single point]"},
      {"smiles": "CC(CCN1CCN(c2ccccn2)CC1)c1ccccc1", "note": "(stereo not drawn)", "Potency": "inconclusive: 89.1 µM [inhibitor, single point]"},
      {"smiles": "CCOC(=O)N1CCN(CC(O)COc2ccccc2C(C)C)CC1", "note": "(stereo not drawn)", "activity change, negative = inhibition": "inactive: -12.5%"},
      {"smiles": "Cc1nn(-c2ccc(N3CCCC3)nn2)c(C)c1CCC(=O)N1CCN(c2ccccc2)CC1", "Potency": "inconclusive: 89.1 µM [inhibitor, single point]"},
      {"smiles": "COc1ccc2cc(C(=O)N3CCN(Cc4ccc5c(c4)OCO5)CC3)[nH]c2c1", "Potency": "inconclusive: 100 µM [inhibitor, partial curve]"},
      {"smiles": "COC(=O)c1oc2ccccc2c1NC(=O)/C=C/C(=O)O", "Potency": "inconclusive: 89.1 µM [inhibitor, single point]"},
      {"smiles": "COc1cccc(CN2CCCC(C(=O)Nc3ccc(-c4cscn4)cc3)C2)c1", "note": "(stereo not drawn)", "Potency": "inconclusive: 79.4 µM [inhibitor, single point]"},
      {"smiles": "CCN1CCN(C(=O)c2cc(S(=O)(=O)Nc3ccc(S(C)(=O)=O)cc3)ccc2Cl)CC1", "activity change, negative = inhibition": "inactive: -22.6%"},
      {"smiles": "N/C(=N\\OS(=O)(=O)c1ccc2ccccc2c1)c1ccccn1", "Potency": "active: 20 µM"},
      {"smiles": "O=C(O)c1ccc2cccnc2c1O", "Potency": "active: 25.1 µM"},
      {"smiles": "CCn1cnc2c(Nc3cccc(Cl)c3)nc(C#N)nc21", "Potency": "inconclusive: 89.1 µM [inhibitor, single point]"},
      {"smiles": "CC1(C)Oc2ccc3ccc(=O)oc3c2-c2cnoc21", "Potency": "active: 50.1 µM"},
      {"smiles": "COc1ccc(OC(=O)Cc2cccc3ccccc23)cc1", "activity change, negative = inhibition": "inactive: 108%"},
      {"smiles": "O=C(NN1C(=O)/C(=C/C=C/c2ccco2)SC1=S)c1ccccc1O", "Potency": "active: 12.6 µM"},
      {"smiles": "CC(=O)N1CCN(c2ccc(NCc3ccc4c(c3)OCO4)cc2)CC1", "Potency": "inconclusive: 79.4 µM [inhibitor, single point]"},
      {"smiles": "Cc1ccccc1N(C)S(=O)(=O)c1nnc(NC(=O)C(C)C)s1", "Potency": "inconclusive: 35.5 µM [inhibitor, full curve]"},
      {"smiles": "Cc1cc(-n2c(C)cc(C(=O)CSc3ncnc4ccccc34)c2C)no1", "activity change, negative = inhibition": "inactive: 0.191%"},
      {"smiles": "CCN(CCNC(=O)C1CCN(Cc2nc(-c3cccc(Cl)c3)oc2C)CC1)c1ccccc1", "Potency": "active: 39.8 µM"},
      {"smiles": "CCSS(=O)(=O)c1cccc2cccnc12", "Potency": "active: 22.4 µM"},
      {"smiles": "CC1=C(C(=O)Nc2ccccc2)C(c2ccc(N(C)C)cc2)NC(=O)N1", "note": "(stereo not drawn)", "activity change, negative = inhibition": "inactive: -7.33%"},
      {"smiles": "O=C(N/C=C/c1ccco1)OCc1ccccc1", "Potency": "inconclusive: 50.1 µM [inhibitor, partial curve]"},
      {"smiles": "O=c1c2cc3c(cc2[nH]c(=S)n1CCN1CCOCC1)OCO3", "Potency": "inconclusive: 89.1 µM [inhibitor, single point]"},
      {"smiles": "CN(C)CCCN(C(=O)c1ccc(S(=O)(=O)N(C)C2CCCCC2)cc1)c1nc2ccc(F)cc2s1", "Potency": "inconclusive: 44.7 µM [inhibitor, partial curve]"},
      {"smiles": "Cc1cccc(OCc2n[nH]c(=S)o2)c1C", "Potency": "active: 56.2 µM"},
      {"smiles": "C(=N\\Nc1ncnc2ccccc12)/c1ccccc1", "Potency": "inconclusive: 70.8 µM [inhibitor, single point]"},
      {"smiles": "COc1ccc(-c2nc(CNC(=O)Nc3ccccc3)c(C)o2)cc1", "activity change, negative = inhibition": "inactive: -24.3%"},
      {"smiles": "CCOC(=O)c1ccc(N=c2sc(C(=O)OC)cc(=O)n2Cc2ccco2)cc1", "Potency": "inconclusive: 11.2 µM [inhibitor, partial curve]"},
      {"smiles": "COc1cc(C(c2c(C)[nH][nH]c2=O)c2c(C)[nH][nH]c2=O)cc(Cl)c1O", "Potency": "inconclusive: 89.1 µM [inhibitor, single point]"},
      {"smiles": "COc1ccc(S(=O)(=O)N(Cc2cccnc2)Cc2cc3ccccc3[nH]c2=O)cc1", "activity change, negative = inhibition": "inactive: -22.4%"},
      {"smiles": "N#Cc1c(-c2c(Cl)cccc2Cl)noc1/C=C/Nc1ccc(C(=O)O)cc1", "Potency": "inconclusive: 39.8 µM [inhibitor, partial curve, poor fit]"},
      {"smiles": "CC(C)C12CN3CC(C(C)C)(CN(C1)C3c1ccccc1O)C2=O", "note": "(stereo not drawn)", "Potency": "inconclusive: 63.1 µM [inhibitor, partial curve, poor fit]"},
      {"smiles": "Cc1cccc(C)c1NC(=O)CN(C)C(=O)CCc1nc2sc3c(c2c(=O)[nH]1)CCCC3", "Potency": "inconclusive: 89.1 µM [inhibitor, single point]"},
      {"smiles": "Cc1ccn2c(Nc3ccc4c(c3)OCCO4)c(-c3cccs3)nc2c1", "Potency": "active: 25.1 µM"},
      {"smiles": "c1ccc(SCCCCNC2CCCC2)cc1", "Potency": "active: 56.2 µM"},
      {"smiles": "Cc1ccc(Cl)cc1NC(c1ccc(F)cc1)c1nnc(-c2ccccc2)o1", "note": "(stereo not drawn)", "activity change, negative = inhibition": "inactive: -15.5%"},
      {"smiles": "CC(=O)c1c(C)[nH]c(C(=O)NCCc2ccccc2)c1C", "Potency": "inconclusive: 89.1 µM [inhibitor, single point]"},
      {"smiles": "Cc1cc2n(n1)SC(Nc1ccccc1)N2", "note": "(stereo not drawn)", "activity change, negative = inhibition": "inactive: -33.4%"},
      {"smiles": "CC(C)CC(C(=O)O)N(Cc1ccccc1)Cc1ccccc1", "note": "(stereo not drawn)", "activity change, negative = inhibition": "inactive: 2.81%"},
      {"smiles": "CSc1cccc(NC(=S)N(C(C)C)C(C)c2ccccn2)c1", "note": "(stereo not drawn)", "Potency": "inconclusive: 50.1 µM [inhibitor, partial curve]"},
      {"smiles": "Cc1ccc(C(=O)N2CC(C(=O)O)C2)cc1", "Potency": "inconclusive: 89.1 µM [inhibitor, single point]"},
      {"smiles": "COc1cc(OC)c(NC(=O)N2CCc3cc(OC)c(OC)cc3C2CC(=O)O)cc1Cl", "note": "(stereo not drawn)", "activity change, negative = inhibition": "inactive: -25.7%"},
      {"smiles": "C=CCc1cccc(/C=N/NC(=O)CCCNc2ccc(C)cc2)c1O", "Potency": "active: 31.6 µM"},
      {"smiles": "CC1(C)Cc2nc3sc(C(=O)NCCCO)c(N)c3cc2CS1", "Potency": "inconclusive: 79.4 µM [inhibitor, partial curve]"},
      {"smiles": "Cc1c(C(=O)N(C)CCC#N)oc2ccc(S(=O)(=O)N3CCOCC3)cc12", "activity change, negative = inhibition": "inactive: 1.23%"},
      {"smiles": "O=C(CSCc1ccco1)c1cccs1", "Potency": "inconclusive: 89.1 µM [inhibitor, single point]"},
      {"smiles": "Cc1ncc(CN2CCCC(C(=O)Nc3ccc(-c4ccco4)cc3)C2)cn1", "note": "(stereo not drawn)", "Potency": "active: 79.4 µM"},
      {"smiles": "COc1cccc(CN(Cc2cccnc2)S(=O)(=O)c2ccc(-n3cnnn3)c(C)c2)c1", "Potency": "active: 79.4 µM"},
      {"smiles": "O=C(NNC(=O)C1CC(c2cccs2)=NO1)Nc1ccc(Cl)cc1", "note": "(stereo not drawn)", "Potency": "inconclusive: 89.1 µM [inhibitor, single point]"}
    ]}
  ]
}
